Measured values reported in a collection of fitness landscapes (doi:10.1016/j.celrep.2020.107928).
The full ranking holds about 81,000 sequences; the median of “one-hybrid fitness for binding parS DNA” is about -0.17, and the highest 2% start at about 0.51. This is one part of the list.

B1: Caulobacter ParB omega fusion; a variant is named by its letters at X, in order, B8GW30 (parent)
chain: MESVVVGEPGMSEGRRGLGRGLSALLGEVDAAPAQAPGEQLGGSREAPIEILQRNPDQPRRTFREEDLEDLSNSIREKGVLQPILVRPSPDTAGEYQIVAGERAWRAAQRAGLKTVPIMVRELDDLAVLEIGIIENVQRADLNVLEEALSYKVLMEKFERTQENIAQTIGKSXSHVANXMRLLXLPDEVQSYLVSGELTAXHARAIAAAADPVALAKQIIEGGLSVRETEALARKAPNLSAGKSKGGRPPRVKDTDTQALESDLSSVLGLDVSIDHRGSTGTLTITYATLEQLDDLCNRLTRGI

Variants of: B1
Assay: one-hybrid fitness for binding parS DNA (scaled: cognate 1, non-cognate 0); higher = stronger binding
Settings: with parS DNA site
In short: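 On M9-minus-histidine containing 0.1 mM IPTG and 5 mM 3-AT, E. coli USO cells with a HIS3 reporter, site 19 bp from the promoter, grew 48 hours at 37°C to select Caulobacter ParB libraries randomised at four specificity codons. Plasmids from before and after were Illumina-sequenced, with three replicate libraries pooled and variants under 10 reads left out. Fitness is the log change in variant-to-wild-type read ratio, rescaled against cognate and non-cognate.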

one-hybrid fitness for binding parS DNA, 0.972:
RVFC

one-hybrid fitness for binding parS DNA, ≤ 0.2:
QPVE
TLFT
TEKC
TRMR
NYFD
DWES
QQFR
YAHF
SGYY
PYKY
RHRI
MHQC
DVGG
TFAM
FANF
RSPE
NVEC
AARY
MYTY
MYKR
AALD
PKRW
GVAT
QSDV
VDYY
LNQR
CYLT
YMLR
GLHV
RQNK
HFET
PCGG
HPHH
QHFS
PTNW
RQFP
TQFG
TVER
SSKI
YTSY
TMQL
PSLF
IVNY
LYET
LRKT
RIQE
KTAR
ITGR
TMYY
EFLC
PFKY
ALSQ
YTCG
TDCF
VPAP
TTPI
VVMV
ICHS
YVCS
GNMW
HAVY
PVKV
PIMD
CKSM
RGTL
MRCR
DARF
IMHT
DVAT
LRMC
KSFS
IYQC
HHTI
GYDP
QTWF
WPSN
GELT
WTHT
MEIR
VFYS
TRGF
PRNM
IATS
DTCG
WLNS
GYQG
DAAP
CTNC
LVYS
CMPS
EQST
HGRG
NNTT
SISI
LLTN
FACT
MQAE
QQVM
YVVN
RIVD
ILHR
KLEI
CMPR
AENV
IFPN
CRGF
DQNE
VLWT
KYSR
LSIW
LTGC
DIEF
HTPD
GNET
WTYG
HVAG
PDPY
LPPA
AIAL
SPAH
DHYR
KPSP
QERD
KEVF
MHDR
TYRA
ANGC
EAMG
GDHL
EHNE
FEHR
LTGW
FRQY
SWFS
QVSC
AYLS
QLWD
VSDY
HQSQ
QLLE
QNTT
ISIA
PDDD
TYGD
HPNE
FACF
TRLF
ESYK
QQAD

one-hybrid fitness for binding parS DNA, 0.434:
RAPT

one-hybrid fitness for binding parS DNA, 0.25:
RIRW

one-hybrid fitness for binding parS DNA, 0.242:
RFMN
